# Data taken from the supplement of paper PMC8728848.
# The other results are listed elsewhere or left out.
# B1: Epa3to1 (Candida glabrata) (protein)
# chain: MGSSHHHHHHSSGLVPRGSHMKRELSSQNPFGYPIGCSPQDVAIIPGLTMELYSYPIVSGTPPNCYDASYVDPEYPRTGYLKRKMVGKSTGVTGNLNYKYSVEKACMVKYGNLPAGYNYNEPLTVSNFTMILYGYFKAQTTGLHTFFVNADDLLYINFGAGNAFDCCKREDSKTKLGEYVAYDIWHVDSSKNKVSLFLEKDLYYPIRMFFNNREYDSSLDLSFSVNGATDQISDFSGYLYSVPDQPDTCPAHIGYDTTCR
# Key:
# Assay in all cases: glycan array binding signal (z-score within array); higher = stronger binding
# Conditions in all cases: glycan notation: IUPAC condensed, linker removed
# [1] = molecular target: GlcNAc(b1-2)Gal(b1-3)GalNAc
# In short: (§1)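 Negative Z-scores can be read as non-binding. The Z-score is calculated within each array and then averaged across arrays of one protein sequence at different concentrations or buffers and across linkers. Arrays, 3228 in all, were curated from the Consortium for Functional Glycomics database and kept only where the protein sequence was available.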
# [2] = molecular target: GlcNAc(b1-2)Man(a1-3)[GlcNAc(b1-2)Man(a1-6)]Man(b1-4)GlcNAc(b1-4)GlcNAc
# In short: as §1
# [3] = molecular target: GlcNAc(b1-2)Man(a1-3)[GlcNAc(b1-2)Man(a1-6)]Man(b1-4)GlcNAc(b1-4)[Fuc(a1-6)]GlcNAc
# In short: as §1
# [4] = molecular target: GlcNAc(b1-2)Man(a1-3)[GlcNAc(b1-4)][GlcNAc(b1-2)Man(a1-6)]Man(b1-4)GlcNAc(b1-4)GlcNAc
# In short: as §1
# [5] = molecular target: GlcNAc(b1-2)Man(a1-3)[GlcNAc(b1-4)][GlcNAc(b1-2)Man(a1-6)]Man(b1-4)GlcNAc(b1-4)[Fuc(a1-6)]GlcNAc
# In short: as §1
# [6] = molecular target: GlcNAc(b1-2)[GlcNAc(b1-4)]Man(a1-3)[GlcNAc(b1-2)Man(a1-6)]Man(b1-4)GlcNAc(b1-4)GlcNAc
# In short: as §1
# [7] = molecular target: GlcNAc(b1-2)[GlcNAc(b1-4)]Man(a1-3)[GlcNAc(b1-4)][GlcNAc(b1-2)Man(a1-6)]Man(b1-4)GlcNAc(b1-4)GlcNAc
# In short: as §1
# [8] = molecular target: GlcNAc(b1-2)[GlcNAc(b1-4)]Man(a1-3)[GlcNAc(b1-4)][GlcNAc(b1-2)[GlcNAc(b1-6)]Man(a1-6)]Man(b1-4)GlcNAc(b1-4)GlcNAc
# In short: as §1
# [9] = molecular target: GlcNAc(b1-2)[GlcNAc(b1-4)]Man(a1-3)[GlcNAc(b1-4)][GlcNAc(b1-2)[GlcNAc(b1-6)]Man(a1-6)]Man(b1-4)GlcNAc(b1-4)[Fuc(a1-6)]GlcNAc
# In short: as §1
# [10] = molecular target: GlcNAc(b1-2)[GlcNAc(b1-6)]Man(a1-6)[GlcNAc(b1-2)Man(a1-3)]Man(b1-4)GlcNAc(b1-4)GlcNAc
# In short: as §1
# [11] = molecular target: GlcNAc(b1-2)[GlcNAc(b1-6)]Man(a1-6)[GlcNAc(b1-2)Man(a1-3)]Man(b1-4)GlcNAc(b1-4)[Fuc(a1-6)]GlcNAc
# In short: as §1
# [12] = molecular target: GlcNAc(b1-2)[GlcNAc(b1-6)]Man(a1-6)[GlcNAc(b1-4)][GlcNAc(b1-2)Man(a1-3)]Man(b1-4)GlcNAc(b1-4)GlcNAc
# In short: as §1
# GlcNAc(b1-3)Fuc = molecular target: GlcNAc(b1-3)Fuc
# In short: as §1
# GlcNAc(b1-3)Gal = molecular target: GlcNAc(b1-3)Gal
# In short: as §1
# [13] = molecular target: GlcNAc(b1-3)Gal(b1-3)GalNAc
# In short: as §1
# GlcNAc(b1-3)Gal(b1-4)Glc = molecular target: GlcNAc(b1-3)Gal(b1-4)Glc
# In short: as §1
# [14] = molecular target: GlcNAc(b1-3)Gal(b1-4)GlcNAc
# In short: as §1
# [15] = molecular target: GlcNAc(b1-3)Gal(b1-4)GlcNAc(b1-2)Man(a1-3)[GlcNAc(b1-3)Gal(b1-4)GlcNAc(b1-2)Man(a1-6)]Man(b1-4)GlcNAc(b1-4)GlcNAc
# In short: as §1
# [16] = molecular target: GlcNAc(b1-3)Gal(b1-4)GlcNAc(b1-2)Man(a1-3)[GlcNAc(b1-3)Gal(b1-4)GlcNAc(b1-2)Man(a1-6)]Man(b1-4)GlcNAc(b1-4)[Fuc(a1-6)]GlcNAc
# In short: as §1
# [17] = molecular target: GlcNAc(b1-3)Gal(b1-4)GlcNAc(b1-2)[GlcNAc(b1-3)Gal(b1-4)GlcNAc(b1-6)]Man(a1-6)[GlcNAc(b1-3)Gal(b1-4)GlcNAc(b1-2)Man(a1-3)]Man(b1-4)GlcNAc(b1-4)GlcNAc
# In short: as §1
# [18] = molecular target: GlcNAc(b1-3)Gal(b1-4)GlcNAc(b1-3)Gal(b1-4)GlcNAc
# In short: as §1
# [19] = molecular target: GlcNAc(b1-3)Gal(b1-4)GlcNAc(b1-3)Gal(b1-4)GlcNAc(b1-2)Man(a1-3)[GlcNAc(b1-3)Gal(b1-4)GlcNAc(b1-3)Gal(b1-4)GlcNAc(b1-2)Man(a1-6)]Man(b1-4)GlcNAc(b1-4)GlcNAc
# In short: as §1
# [20] = molecular target: GlcNAc(b1-3)Gal(b1-4)GlcNAc(b1-3)Gal(b1-4)GlcNAc(b1-2)Man(a1-3)[GlcNAc(b1-3)Gal(b1-4)GlcNAc(b1-3)Gal(b1-4)GlcNAc(b1-2)Man(a1-6)]Man(b1-4)GlcNAc(b1-4)[Fuc(a1-6)]GlcNAc
# In short: as §1
# [21] = molecular target: GlcNAc(b1-3)Gal(b1-4)GlcNAc(b1-3)Gal(b1-4)GlcNAc(b1-2)[GlcNAc(b1-3)Gal(b1-4)GlcNAc(b1-3)Gal(b1-4)GlcNAc(b1-6)]Man(a1-6)[GlcNAc(b1-3)Gal(b1-4)GlcNAc(b1-3)Gal(b1-4)GlcNAc(b1-2)Man(a1-3)]Man(b1-4)GlcNAc(b1-4)[Fuc(a1-6)]GlcNAc
# In short: as §1
# [22] = molecular target: GlcNAc(b1-3)Gal(b1-4)GlcNAc(b1-3)Gal(b1-4)GlcNAc(b1-3)Gal(b1-4)GlcNAc(b1-2)Man(a1-3)[GlcNAc(b1-3)Gal(b1-4)GlcNAc(b1-3)Gal(b1-4)GlcNAc(b1-3)Gal(b1-4)GlcNAc(b1-2)Man(a1-6)]Man(b1-4)GlcNAc(b1-4)GlcNAc
# In short: as §1
# [23] = molecular target: GlcNAc(b1-3)Gal(b1-4)GlcNAc(b1-3)Gal(b1-4)GlcNAc(b1-3)Gal(b1-4)GlcNAc(b1-2)Man(a1-3)[GlcNAc(b1-3)Gal(b1-4)GlcNAc(b1-3)Gal(b1-4)GlcNAc(b1-3)Gal(b1-4)GlcNAc(b1-2)Man(a1-6)]Man(b1-4)GlcNAc(b1-4)[Fuc(a1-6)]GlcNAc
# In short: as §1
# [24] = molecular target: GlcNAc(b1-3)Gal(b1-4)GlcNAc(b1-3)Gal(b1-4)GlcNAc(b1-3)Gal(b1-4)GlcNAc(b1-2)[GlcNAc(b1-3)Gal(b1-4)GlcNAc(b1-3)Gal(b1-4)GlcNAc(b1-3)Gal(b1-4)GlcNAc(b1-6)]Man(a1-6)[GlcNAc(b1-3)Gal(b1-4)GlcNAc(b1-3)Gal(b1-4)GlcNAc(b1-3)Gal(b1-4)GlcNAc(b1-2)Man(a1-3)]Man(b1-4)GlcNAc(b1-4)[Fuc(a1-6)]GlcNAc
# In short: as §1
# [25] = molecular target: GlcNAc(b1-3)Gal(b1-4)GlcNAc(b1-3)Gal(b1-4)GlcNAc(b1-3)Gal(b1-4)GlcNAc(b1-3)Gal(b1-4)GlcNAc(b1-2)Man(a1-3)[GlcNAc(b1-3)Gal(b1-4)GlcNAc(b1-3)Gal(b1-4)GlcNAc(b1-3)Gal(b1-4)GlcNAc(b1-3)Gal(b1-4)GlcNAc(b1-2)Man(a1-6)]Man(b1-4)GlcNAc(b1-4)GlcNAc
# In short: as §1
# [26] = molecular target: GlcNAc(b1-3)Gal(b1-4)GlcNAc(b1-3)Gal(b1-4)GlcNAc(b1-3)Gal(b1-4)GlcNAc(b1-3)Gal(b1-4)GlcNAc(b1-2)Man(a1-3)[GlcNAc(b1-3)Gal(b1-4)GlcNAc(b1-3)Gal(b1-4)GlcNAc(b1-3)Gal(b1-4)GlcNAc(b1-3)Gal(b1-4)GlcNAc(b1-2)Man(a1-6)]Man(b1-4)GlcNAc(b1-4)[Fuc(a1-6)]GlcNAc
# In short: as §1
# [27] = molecular target: GlcNAc(b1-3)Gal(b1-4)GlcNAc(b1-3)Gal(b1-4)GlcNAc(b1-3)Gal(b1-4)GlcNAc(b1-3)Gal(b1-4)GlcNAc(b1-2)[GlcNAc(b1-3)Gal(b1-4)GlcNAc(b1-3)Gal(b1-4)GlcNAc(b1-3)Gal(b1-4)GlcNAc(b1-3)Gal(b1-4)GlcNAc(b1-6)]Man(a1-6)[GlcNAc(b1-3)Gal(b1-4)GlcNAc(b1-3)Gal(b1-4)GlcNAc(b1-3)Gal(b1-4)GlcNAc(b1-3)Gal(b1-4)GlcNAc(b1-2)Man(a1-3)]Man(b1-4)GlcNAc(b1-4)[Fuc(a1-6)]GlcNAc
# In short: as §1
# [28] = molecular target: GlcNAc(b1-3)Gal(b1-4)GlcNAc(b1-3)Gal(b1-4)GlcNAc(b1-3)GalNAc
# In short: as §1
# [29] = molecular target: GlcNAc(b1-3)Gal(b1-4)GlcNAc(b1-3)GalNAc
# In short: as §1
# [30] = molecular target: GlcNAc(b1-3)Gal(b1-4)GlcNAc(b1-3)[GlcNAc(b1-3)Gal(b1-4)GlcNAc(b1-3)]GalNAc
# In short: as §1
# [31] = molecular target: GlcNAc(b1-3)Gal(b1-4)GlcNAc(b1-6)[Gal(b1-3)]GalNAc
# In short: as §1
# [32] = molecular target: GlcNAc(b1-3)Gal(b1-4)GlcNAc(b1-6)[GlcNAc(b1-3)Gal(b1-3)]GalNAc
# In short: as §1
# [33] = molecular target: GlcNAc(b1-3)Gal(b1-4)GlcNAc(b1-6)[GlcNAc(b1-3)]Gal(b1-4)GlcNAc
# In short: as §1
# GlcNAc(b1-3)GalNAc = molecular target: GlcNAc(b1-3)GalNAc
# In short: as §1
binder,measurement,setting,value
B1,glycan array binding signal (z-score),[1],-0.767
same,glycan array binding signal (z-score),[2],-0.236
same,glycan array binding signal (z-score),[3],-0.421
same,glycan array binding signal (z-score),[4],0.588
same,glycan array binding signal (z-score),[5],-0.266
same,glycan array binding signal (z-score),[6],-0.332
same,glycan array binding signal (z-score),[7],-0.209
same,glycan array binding signal (z-score),[8],-0.24
same,glycan array binding signal (z-score),[9],-0.017
same,glycan array binding signal (z-score),[10],-0.435
same,glycan array binding signal (z-score),[11],-0.617
same,glycan array binding signal (z-score),[12],-0.418
same,glycan array binding signal (z-score),GlcNAc(b1-3)Fuc,-0.291
same,glycan array binding signal (z-score),GlcNAc(b1-3)Gal,-0.609
same,glycan array binding signal (z-score),[13],0.077
same,glycan array binding signal (z-score),GlcNAc(b1-3)Gal(b1-4)Glc,-0.261
same,glycan array binding signal (z-score),[14],-0.693
same,glycan array binding signal (z-score),[15],-0.383
same,glycan array binding signal (z-score),[16],-0.159
same,glycan array binding signal (z-score),[17],-0.36
same,glycan array binding signal (z-score),[18],-0.343
same,glycan array binding signal (z-score),[19],-0.623
same,glycan array binding signal (z-score),[20],-0.263
same,glycan array binding signal (z-score),[21],-0.011
same,glycan array binding signal (z-score),[22],-0.368
same,glycan array binding signal (z-score),[23],0.013
same,glycan array binding signal (z-score),[24],-0.012
same,glycan array binding signal (z-score),[25],-0.533
same,glycan array binding signal (z-score),[26],-0.036
same,glycan array binding signal (z-score),[27],0.314
same,glycan array binding signal (z-score),[28],-0.4
same,glycan array binding signal (z-score),[29],0.229
same,glycan array binding signal (z-score),[30],-0.249
same,glycan array binding signal (z-score),[31],0.148
same,glycan array binding signal (z-score),[32],-0.526
same,glycan array binding signal (z-score),[33],-0.631
same,glycan array binding signal (z-score),GlcNAc(b1-3)GalNAc,-0.726
